Our source for the relative cell viability values is the supplement of paper PMC10670038.

Structures can show the parent of a compound that is named as a salt. ± gives the standard deviation of the averaged measurements. Over roughly 2,000 compounds, “relative cell viability vs DMSO, compound + 0.2 uM CuET” has its median near 1; the lowest 2% begin near 0.25. The list shows a part of the results.

This assay concerns TE10. Kind of assay: relative cell viability vs DMSO, compound + 0.2 uM CuET (fraction); TE10 is an esophageal squamous carcinoma line; higher = less cytotoxic. To be noted: 2 µM; co-treatment: CuET (bis(diethyldithiocarbamate)copper) 0.2 uM; 48 h. The procedure:
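TE10 ESCC cells (1,000/well, 384-well plates) were treated with Selleck bioactive library compounds at 2 uM combined with 0.2 uM CuET (copper diethyldithiocarbamate) for 48 h. Viability was read by CellTiter-Glo and expressed relative to DMSO wells. Two technical replicates (A, B).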
For the compound `COc1ccc2c(Oc3ccc(NC(=O)c4c(C)n(CC(C)(C)O)n(-c5ccccc5)c4=O)nc3)ccnc2c1`, the relative cell viability stood at 1.02 ± 0.15.
For the compound `CCCNC(=O)NS(=O)(=O)c1ccc(Cl)cc1` [Chlorpropamide], the relative cell viability worked out at 1.17 ± 0.016.
The result for `COc1ccc(Cl)c(Nc2nc3ccccc3nc2NS(=O)(=O)c2cccc(NC(=O)C(C)(C)N)c2)c1` [Pilaralisib (XL147)] reads 1.01 ± 0.097; that for `COc1cc(-c2ncn(/C=C\C(=O)OC(C)C)n2)cc(C(F)(F)F)c1`, 0.25 ± 0.0078; that for `COc1ccc(-c2nc(N3CCOCC3)c3sc(CN(C)c4ncc(C(=O)NO)cn4)cc3n2)cn1`, 0.1569 ± 0.00068.
As to `O=C(Cc1ccccc1)Nc1nnc(CCSCCc2nnc(NC(=O)Cc3ccccc3)s2)s1`, the relative cell viability was found to be 0.713 ± 0.053.
The result for `Cc1cnc(Nc2ccc(OCCN3CCCC3)cc2)nc1Nc1cccc(S(=O)(=O)NC(C)(C)C)c1` reads 0.854 ± 0.19.
The result for `CO[C@H]1/C=C/O[C@@]2(C)Oc3c(C)c(O)c4c(O)c(c5c(nc6cc(C)ccn65)c4c3C2=O)NC(=O)/C(C)=C\C=C\[C@H](C)[C@H](O)[C@@H](C)[C@@H](O)[C@@H](C)[C@H](OC(C)=O)[C@@H]1C` [Rifaximin] reads 0.997 ± 0.15; that for `C[C@]12C=CC(=O)N[C@@H]1CC[C@@H]1[C@@H]2CC[C@]2(C)[C@@H](C(=O)Nc3cc(C(F)(F)F)ccc3C(F)(F)F)CC[C@@H]12` [Dutasteride], 0.848 ± 0.029; that for `CN(C)S(=O)(=O)c1ccc2c(c1)/C(=C/c1cc3c([nH]1)CCCC3)C(=O)N2`, 0.891 ± 0.022.
The result for `Clc1cccc(Cl)c1NC1=NCCN1` [Clonidine HCl] reads 1.05 ± 0.0021; that for `Nc1ccccc1NC(=O)c1cnccn1`, 1.16 ± 0.018; that for `CC(C)c1ccccc1Cc1cc(C(=O)Nc2ccc(S(=O)(=O)c3ccccc3C(C)(C)C)cc2)c(O)c(O)c1O`, 0.801 ± 0.026.
For `O=C(O)CCc1ccc(NCc2cccc(Oc3ccccc3)c2)cc1`, the relative cell viability worked out at 0.995 ± 0.041.
The result for `Clc1ccc2c(c1)CCc1cccnc1C2=C1CCNCC1` [Desloratadine] reads 1.26 ± 0.38; that for `O=C1NCC2(CCN(CCc3ccccc3)CC2)O1` [Fenspiride HCl], 0.875 ± 0.087; that for `CCS(=O)(=O)N1CC(CC#N)(n2cc(-c3ncnc4[nH]ccc34)cn2)C1`, 1.2 ± 0.077.
`Nc1nccc(Oc2ccc(NC(=O)c3c[nH]cc(-c4ccc(F)cc4)c3=O)cc2F)c1Cl`: the relative cell viability was determined as 0.947 ± 0.031.
The result for `C[C@H]1CO[C@@H]2Cn3cc(C(=O)NCc4ccc(F)cc4F)c(=O)c(O)c3C(=O)N12` reads 1.04 ± 0.11; that for `C[C@H]1[C@H](C)CC[C@]2(C(=O)O)CC[C@]3(C)C(=CC[C@@H]4[C@@]5(C)CC[C@H](O)C(C)(C)[C@@H]5CC[C@]43C)[C@H]12` [Ursolic Acid], 0.984 ± 0.1; that for `NC(=O)Nc1cc(-c2cccc(F)c2)sc1C(=O)N[C@H]1CCCNC1`, 0.55 ± 0.021.
